Assay results: patent publication EP4345091A1, “BENZOIC ACID DERIVATIVES, METHODS AND USES THEREOF” (priority 2022, dated 2024)

Test: Stability in human plasma (enzymatic hydrolysis)
Details: 37°C, substrate 5×10^-4M with 2% ACN; for 1/2: half-life in human plasma diluted to 80%; for kobs × 100: human plasma diluted to 80%, 72h, values are kobs × 100

SMILES	1/2	kobs × 100
CCCCOC(=O)c1ccccc1 [Compound 1a, Butyl benzoate]	1.59 ± 0.21 h	44.1 ± 6.1 h^-1
CCCCCCOC(=O)c1ccccc1 [Compound 1b, Hexyl benzoate]	6.00 ± 0.61 h	11.6 ± 1.2 h^-1
CCCCCCCCOC(=O)c1ccccc1 [Compound 1c, Octyl benzoate]	26.1 ± 2.4 h	2.66 ± 0.23 h^-1
CCCCCCCCOC(=O)c1ccc([N+](=O)[O-])cc1 [Compound 2c, Octyl 4-nitrobenzoate]	7.18 ± 0.9 h	9.73 ± 1.20 h^-1
CCCCOC(=O)c1cc([N+](=O)[O-])cc([N+](=O)[O-])c1 [Compound 3a]	8.59 ± 0.31 h	8.08 ± 0.29 h^-1
CCCCCCOC(=O)c1cc([N+](=O)[O-])cc([N+](=O)[O-])c1 [Compound 3b]	12.3 ± 1.0 h	5.68 ± 0.47 h^-1
CCCCCCCCOC(=O)c1cc([N+](=O)[O-])cc([N+](=O)[O-])c1 [Compound 3c]	19.9 ± 2.6 h	3.53 ± 0.44 h^-1
CCCCCCCCCCOC(=O)c1cc([N+](=O)[O-])cc([N+](=O)[O-])c1 [Compound 3d, Decyl 3,5-dinitrobenzoate]	71.0 ± 4.7 h	0.98 ± 0.07 h^-1
CCCCCCCCCCCCOC(=O)c1cc([N+](=O)[O-])cc([N+](=O)[O-])c1 [Compound 3e]	78.4 ± 11.7 h	0.89 ± 0.13 h^-1
CCCCCCCCCCCCCCOC(=O)c1cc([N+](=O)[O-])cc([N+](=O)[O-])c1 [Compound 3f]	74.1 ± 18.7 h	0.97 ± 0.23 h^-1
CCCCOC(=O)c1cc([N+](=O)[O-])cc(C(F)(F)F)c1 [Compound 4a, Butyl 3-nitro-5-(trifluoromethyl)benzoate]	5.63 ± 0.88 h	12.5 ± 1.8 h^-1
CCCCCCOC(=O)c1cc([N+](=O)[O-])cc(C(F)(F)F)c1 [Compound 4b, Hexyl 3-nitro-5-(trifluoromethyl)benzoate]	12.0 ± 2.4 h	5.96 ± 1.28 h^-1
CCCCCCCCOC(=O)c1cc([N+](=O)[O-])cc(C(F)(F)F)c1 [Compound 4c, Octyl 3-nitro-5-(trifluoromethyl)benzoate]	30.1 ± 0.9 h	2.30 ± 0.06 h^-1
CCCCCCCCCCOC(=O)c1cc([N+](=O)[O-])cc(C(F)(F)F)c1 [Compound 4d, Decyl 3-nitro-5-(trifluoromethyl)benzoate]	55.0 ± 1.7 h	1.26 ± 0.04 h^-1
